Results as given in PMC12136788.
The other results are listed elsewhere or left out.

T1: UNK ZnF1-6 (called full-length) (human, UniProt Q9C0B0 30-357)
T1 sequence: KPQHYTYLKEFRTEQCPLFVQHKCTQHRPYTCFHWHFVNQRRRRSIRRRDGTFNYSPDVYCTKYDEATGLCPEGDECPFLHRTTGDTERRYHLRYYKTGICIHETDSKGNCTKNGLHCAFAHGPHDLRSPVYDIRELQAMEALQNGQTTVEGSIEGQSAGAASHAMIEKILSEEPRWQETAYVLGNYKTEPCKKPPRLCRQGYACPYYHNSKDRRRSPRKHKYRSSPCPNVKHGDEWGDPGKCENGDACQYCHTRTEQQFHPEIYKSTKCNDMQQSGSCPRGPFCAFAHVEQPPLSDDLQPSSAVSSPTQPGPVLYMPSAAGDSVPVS

B1: chr2:101892430:101892531:+|3pUTR|ENSG00000071054|msi1|FALSE|unique (ssRNA)
RNA: GGGAGUUCUACAGUCCGACGAUCCCAUUAGAGGUUGAUGGGGCAACUGCAGCCCAUGACACAAGAUCUCAUUGUUCUCGAUGUAGAGGGGUUGGUAGCAGACAGGUGGUUACAUUAGAAUAGUCACACAAACUGUUCAGUGUUCAACAGAGGAUUGAGCAUCA
B2: chr1:204551843:204551944:+|3pUTR|ENSG00000198625|unk|total|mutant (ssRNA)
RNA: GGGAGUUCUACAGUCCGACGAUCAGUGUUCCUGGAAUCUCUAUGCAAGUUUUAUACAGAACAUACUUUUGGAAUCCUUGCCCCCGACAGGGGUGUCCAAUCUUUUGGCUUCCCUGGUCCACAAUGGAAGAAGAAUUGUCUUGGCAACAGAGGAUUGAGCAUCA
B3: chr4:112276399:112276500:-|3pUTR|ENSG00000145365|unk|total|mutant (ssRNA)
RNA: GGGAGUUCUACAGUCCGACGAUCUUAUUCCCUGUGAUGCCCAGAGUAAUGGCCCAUCCAAAGAUGUCCAGAUGUCCAUGUGCCCGUCUCCAGAACUUGUAACUGUGUUGUUAUGUGGCAAAGGGGAAUGAAGGCUGCAGAUGGCAACAGAGGAUUGAGCAUCA
B4: chr5:134606522:134606623:-|3pUTR|ENSG00000152700|msi1_unk|total|mutant (ssRNA)
RNA: GGGAGUUCUACAGUCCGACGAUCAACUAUAAACCAUAUUUAAAAGCUCAUCAUGUUAAAUUUUUUAUGUACUUUUCUGGAACCCGUUUUUAAAUUUCCGAUUAUAUGUCCACCUAUCUUAAGUGUACAGUUAAUAAUCCGCUUCAACAGAGGAUUGAGCAUCA
B5: chr1:13223334:13223905:-|CDS|ENSG00000279804|control|control|control (ssRNA)
RNA: GGGAGUUCUACAGUCCGACGAUCUCUUGAGCCCCUCCGAGCUCUGCUAGAGAAAGUUGCUGCCACUCUUCAGACCCUCUUCUUAGUGGACUGUGGGAUUGGGUACUCCAAACUCAGGGUCAUCCUGCCUGCCCUGAGCCGCUGCAACAGAGGAUUGAGCAUCA
B6: chr1:178849534:178851128:-|three_prime_utr|ENSG00000116194|control|control|control (ssRNA)
RNA: GGGAGUUCUACAGUCCGACGAUCCUACACAGAAAGUUUUUAAAAUGAAUUUUACCGUAACUAUAAAAGGGAACCUAUAAAUGUAGUUUCAUCUGUCGUCAAUUACUGCAGAAAAUUAUGUGUAUCCACAACCUAGUUAUUUUACAACAGAGGAUUGAGCAUCA
B7: chr8:6811200:6812339:-|CDS|ENSG00000275591|control|control|control (ssRNA)
RNA: GGGAGUUCUACAGUCCGACGAUCAUGUAGAGGCUUCUGCCCCAGUGCAGGCUUCCCUGGAAGAACCCUCAGUAUCUCAGAGCUAGAGGAGCCGCUGGAGCCCAAAAGGGAGCUAAGUCACCAUGCAGCUGUUGGUGUGUGGGUCAACAGAGGAUUGAGCAUCA
B8: chr6:4954605:4954706:+|3pUTR|ENSG00000153046|msi1|FALSE|bound_elsewhere (ssRNA)
RNA: GGGAGUUCUACAGUCCGACGAUCGGAUAAAUACUUCUGAUGAAAAAUCCGCUGAGGAGCAUACCCCAAACCAGACAUAUGCUUAGGAUUCAUGCUGAGAUAUCAAUUGGUUUCCCCUUCUUUUUAAAAUACGUCCAGUUCUUACAACAGAGGAUUGAGCAUCA
B9: chr8:116643852:116643953:-|3pUTR|ENSG00000147677|unk|total|mutant (ssRNA)
RNA: GGGAGUUCUACAGUCCGACGAUCUGUUGUGAAUGAGGAAUCCGGAAUCCGGAGAAUGGCCGUACAUUGGGAAAAACAUAUUUCCGUAAUUUUUAUAUUUUAAAGAUAAUCACAGAUUUUGCUGUUUGUGCAUCACCAAAAUCACAACAGAGGAUUGAGCAUCA
B10: chr16:30193532:30193793:-|CDS|ENSG00000169627|control|control|control (ssRNA)
RNA: GGGAGUUCUACAGUCCGACGAUCGCCUUAGUAAGGGCGGAAGUGAGUUUUCCAGCGGAAGUGGCUCCUGUAAGGCAGCAAGGUAGCGUGGCCGGCGCCCGAGCUGGGGUUGUGUCCCUGCUGGGCUGCCGUUCCAGCUGGACUCAACAGAGGAUUGAGCAUCA
B11: ENSG00000180263:stop:overlap|stop_codon|ENSG00000180263|stop_codon|NA|stop_codon (ssRNA)
RNA: GGGAGUUCUACAGUCCGACGAUCCAGAGGAUGCUCAUUCGGCUCAGAAGUGGAUAGAAGCAUUUCAGGAAGGCACAAUAUUGUAGCAGUAUUGGUUUCAUCUCUUCUGUGAUUCCAAAGAGGUGGAAUUUCAUCAGAAUGGAGCAACAGAGGAUUGAGCAUCA
B12: chr6:37331633:37331734:+|3pUTR|ENSG00000065491|unk|FALSE|unique (ssRNA)
RNA: GGGAGUUCUACAGUCCGACGAUCCCGUUCCCCUUCUGCCCCAGUCUGAGCCAGUGAGGGGUAGCUUUUUAAAACCAUUAUUCUAGAUGGAGGAGGCACUGAUGCUUGUAACUCUGGAAAGAGGCCUACACCCAAGGGCUAGGACAACAGAGGAUUGAGCAUCA
B13: ENSG00000070961:be:win_1401|CDS|ENSG00000070961|bound_else_gene|NA|bound_elsewhere_windowed (ssRNA)
RNA: GGGAGUUCUACAGUCCGACGAUCAAAUGCUACAGCUAUUUGUUCAGAUAAAACAGGAACUUUGACAAUGAACAGAAUGACAGUCGUUCAAGCUUACAUAAAUGAAAAACAUUAUAAAAAGGUUCCUGAACCAGAAGCUAUUCCCAACAGAGGAUUGAGCAUCA
B14: chr7:6409910:6410025:-|CDS|ENSG00000164535|unk|total|mutant (ssRNA)
RNA: GGGAGUUCUACAGUCCGACGAUCCUCUGCUGCUCACUACCGCGCCAAGUGGUCACACGAAGCGGAAUUCAGCAAAAUACUCACCGGUCCGAAGAUGCUCACCGACCACAUGCCAGACAUCCUGAUGCGGGCCUUGGACAGCGUCAACAGAGGAUUGAGCAUCA

Target: T1, UNK ZnF1-6 (called full-length)
Assay: nsRBNS (natural sequence RNA bind-n-seq); RBNS binding buffer (assumed for nsRBNS): 25 mM Tris pH 7.5, 150 mM KCl, 3 mM MgCl2, 0.01% Triton X-100, 500 ug/ml BSA, 20 U/ml SUPERase-In, 4 C; UNK is unkempt and MSI1 is Musashi-1; names of the RNAs are library labels; protein concentration not given here; high values mean tight binding

Row | Binder | binding signal [enrichment R]
1 | B1 | 0.771
2 | B2 | 0.328
3 | B3 | 0.551
4 | B4 | 2.06
5 | B5 | 1
6 | B6 | 2.6
7 | B7 | 0.868
8 | B8 | 0.311
9 | B9 | 0.568
10 | B10 | 0.892
11 | B11 | 0.946
12 | B12 | 2.05
13 | B13 | 0.274
14 | B14 | 0.72
